Laboratory results: the RNAGym collection of RNA variant scans (doi:10.7554/elife.90254)
The source gives no read counts; variants with many changes may rest on few reads.

B1: LINE1-mini (parent)
chain: GGCAGAGCUCAACACAGCGUGGCAAAGUGGCUGUGGCUAGACUGCC

Variants of: B1
Assay: self-cleavage, relative activity (ratio to wild type); higher = more cleavage; in vitro, sequencing; the parent is a self-cleaving ribozyme

Variant | self-cleavage
A24G G36C G40C C42G C45G | 0.03
C15U G19A C31A | 0.05
U9C A25C G35U G44C C45U | 0.01
C8U G27A C31U A39C | 0.1
A6G A11U C15A G27A | 0.01
G7C G33U C37A U43C | 0.15
C8A U9A C23U | 0.28
G21A C23G C37U | 0.03
G2A A6U A11G C42G | 0.05
G17A C18G C37A | 0.03
G2U C3U G5U A24G | 0.02
G7U U20G U32G G36U C37G A39U | 0.01
G2U A25G A26G G29A | 0.05
A4G U20A A39U | 0.34
G36U A41U U43G | 0.09
G7C A12U G29C U34G | 0.02
G5U U32G G40C | 0.07
G2A U28G A39C A41G | 0.1
A16G C23U G30C | 0.85
C8G C13A C15A C42A U43A | 0.03
C18G G27U G36A A41C | 0.01
U20A C31U G35U | 0.03
A4C C15A G22C U32A A41U | 0.06
C10A U34A G40U | 0.04

Variant | self-cleavage
C10G A11C C15U A24G C37A A39G | 0.01
G7A C10A A24G U34A A39U C45G | 0.04
G1A C13A A16G G40U | 0.02
G5A U9A A11U C13U C23A U28G G35A | 0.05
C3U C18U G30U U38C G44C | 0.04
G2A C15G A24C G29U C31G | 0.02
C8A A11C G19A G30C | 0
A4G G7U C23A C31A A41U | 0.07
G19A C23U G27U G44C | 0.22
G21A G29U C42A | 0.22
A6C C31U C46A | 0.27
C23A A25U C45G | 0.15
A6G A11U G40A | 0.02
C13G G21A G33C | 0.04
C13G G27U U28G | 0.09
U9A A26C G29A U32C C42U | 0.51
A14U U20C G30A G36A | 0.06
U9C A24C G30A U34A | 0.02
U9G A16U G22A | 0.01
G5U C18U U20G C31A | 0.01
U9C A11C G19U C46A | 0.06
U9C A11G U34G | 0.02
G19U G30A A41C | 0.07
G7A C10G A11C A24G G33U | 0.01

Variant | self-cleavage
C13A G36C C45A | 0.01
C8U G27C C31U G35U | 0.05
C3A U28G C37A | 0.19
G7C G29U C45A | 0.25
C10A C13G C15U C37U A41C | 0.02
G19A G29C C31U | 0.3
C3U G19C G36U C42G | 0.03
G22U C31A U32G | 0.05
C3U G5C G36U G44U | 0.06
G21A G35U C37U A39U | 0.06
C8U C18U C46U | 0.11
G2U C23U G40C C42G | 0.01
A4G C10A C13U C42U | 0.01
G1C G19A U28C U32A G36C | 0.01
G1U G22U G44A | 0.07
C18A U32G C37G | 0.04
G35U G40U G44A | 0.14
C3G U20A A39U C42A | 0.08
A16G U34G G44U | 0.01
G7U G27U C37G | 0.03
G5U G29A U34C C42A C46U | 0.26
U9C A11G U28G | 0.04
A11G G17U U32C U34A U38G C45G | 0
U20G G30U G33U | 0.04

Variant | self-cleavage
C13G G30U C31U G35U U43C | 0.02
G19C G30C U43A C46U | 0.15
C3G C13U G19C G30A | 0.11
G1U G5U G29U | 0.11
C3U A11U G19U U20A | 0.04
G1A G27A U38G | 0.05
G5A G17A A25U G30A | 0.15
U9G C15G U20C | 0.07
A4C A11C G27U G33U C37U | 0
C8G A16C G21U | 0.02
A6U U20A C37U C45U | 0.08
U9C C15A U38C G40C U43G | 0
C8A A14C G27A C42G | 0.14
C8G C13U A26C G35A | 0.14
U9A C15A U20A | 0.21
G1U A11C C45G | 0.04
A11U A14G G30U G44C | 0.01
U9G U20A C42G | 0.55
C13G G19C G29C | 0.05
G1A A12G G27C G29C G33C | 0.03
C3A U20A U28C | 0.17
G2C U9A C45U | 0.07
G7C U32C C37U | 0.02
C31G G35C C42U | 0

Variant | self-cleavage
C10A U20G A24U G44C | 0.01
A6U G7U U38A | 0.07
C8G A16U A24C | 0.04
C31A U38C A39U | 0.02
G7A G21A A39C | 0.45
A6G G22U A24U C31U G33A G35U C42G | 0.04
A11U A25U A39U | 0.11
G1C G2A G22U | 0.36
G5U G33U U34A C46A | 0.02
C13U A16C G33A C46A | 0.08
C8G U32G A41U | 0.05
C3A G30U C37U | 1.68
G1A C3U A16G U32C G36A | 0.06
U9C G17A A24U U28C | 0.04
A4U G33A G44U | 0.01
G1A C3G C31U U34G G35C C45G | 0.18
C3G A16C A39U | 0.21
C10U G22A U32A G33C U38C U43G G44U | 0.02
C13A A14C A24C C42U | 0.14
C23U G33A G35A C46A | 0.02
C23U G30C C37G C46A | 0.01
C3A C13U A26C C42G G44C C46U | 0.12
G5U A6C C13A | 0.05
C10A C18U G22C U43A | 0.01

Variant | self-cleavage
G5U A12C C23U | 0.07
A6U G19U A24C | 0.22
G2U A24U G30A C42G G44A | 0.01
G5C G7U G22U U28A G40A | 0.3
C10A G21A G33A | 0.01
G2C G17U C23U A25U G36U A39C | 0.02
U9C U20A A25C | 0.03
U9G C37G C42G | 0.03
U9A C23U G27C U34G G35A | 0.14
C8G U9A U38A G40C G44A | 0.01
G2A C15A C23A A24C C31G U38C | 0.15
C8G A16U G17C C18G U28A G36U | 0.08
G7C U9C A16G C18U U43A | 0.01
C3G G7U C8G C15A U20C C23A C42U U43G | 0.21
G2A U9G A11G A25G A39G C45U | 0
C15U U38C C45G | 0.61
A11U G22U U38C C42U | 0.06
A4U G19U A26U | 0.03
G1A C15U G21U G22A G36U | 0.22
G2A G5A C15G G22A A24U G30A | 0.07
G5U C23U A26G A39G A41C | 0.04
G1A G5C G21C G33U G36U | 0.11
A4G A11G G27U U38G C46G | 0
G5U C31U G40A A41C | 0.01

Variant | self-cleavage
G5C G33A U43A G44U | 0.05
G2C A4U C10A G21A U32G G35C A41C C45A | 0.01
A12G C15G A25U G27U | 0.01
G7U C31U G33C C37U | 0.01
C13U G17U G22U | 0.03
G7U A11U U28C U38G G44A | 0
C3G A14C C15U C18U | 0.14
G21U A26G U34C A39U | 0.06
U9A G30U U34A G40U | 0
G5U A16G A25G | 0.02
A14U G21A A25U G40A | 0.03
G29U G30C G40U | 0.13
A4C A24U G33A A39G U43C | 0.01
A4G G30A A41U | 0.66
G5A C8A C45U | 0.73
A39G C42G C45U | 0.03
C15G A16U C18U G21A G27U U34C C37U | 0.07
G2U A26U A39G | 0.02
C3U C31A U34G A39U | 0
G1A G29U G35U | 0.1
C15U G36U C45U | 0.02
A12G C18A C31A G36C | 0.08
A4U U9G C15U C18U G19A C23U C45G | 0.25
